Reference: PubChem BioAssay AID2147 (National Center for Advancing Translational Sciences (NCATS), 2009)
In all, about 230,000 compounds went through this assay and about 3,600 (1.6%) were called active. This list was built around the results that the source calls inconclusive (neither active nor inactive); the mix of calls is not that of the screen. Calls follow the shape of the dose curve; as a rule, active = well fitted inhibition curve with a large enough effect (not every such curve was filed as active); inconclusive = small, poorly fitted or top-dose-only effect, or another doubt; inactive = no such curve, though single readings can be large or run the other way. Potencies beside an inconclusive call are fits to weak or partial responses and may not hold up.
Also: nearly all actives have a fitted effect of over 50% in size.
Potency is read from the fitted curve at half-maximal effect; tags tell the direction and shape of the fitted curve.

Each compound was assayed against Lysine-specific demethylase 4E (Homo sapiens) (UniProt B2RXH2) (assay: qHTS Assay for Inhibitors of Human Jumonji Domain Containing 2E (JMJD2E)). Conditions: JMJD2E catalytic domain, FDH-coupled NADH fluorescence (FDH is formaldehyde dehydrogenase); series mostly up to 57.1 µM.
UniProt B2RXH2, sequence (B2RXH2 whole entry, looked up, the tested form may be a part): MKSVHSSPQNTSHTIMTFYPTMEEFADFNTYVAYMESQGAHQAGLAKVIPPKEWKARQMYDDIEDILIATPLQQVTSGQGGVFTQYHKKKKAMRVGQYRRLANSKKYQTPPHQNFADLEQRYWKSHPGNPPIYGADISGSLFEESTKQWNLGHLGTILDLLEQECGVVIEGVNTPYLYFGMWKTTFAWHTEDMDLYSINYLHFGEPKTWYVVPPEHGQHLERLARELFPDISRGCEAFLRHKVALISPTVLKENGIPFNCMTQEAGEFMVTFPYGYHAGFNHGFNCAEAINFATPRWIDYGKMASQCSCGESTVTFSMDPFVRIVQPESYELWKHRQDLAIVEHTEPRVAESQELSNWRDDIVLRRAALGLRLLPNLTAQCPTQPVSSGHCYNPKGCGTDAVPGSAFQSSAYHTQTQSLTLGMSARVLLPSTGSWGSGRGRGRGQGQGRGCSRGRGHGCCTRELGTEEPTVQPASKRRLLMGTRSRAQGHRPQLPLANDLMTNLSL
For `Cn1c2ccccc2c2cnn(CC(=O)Nc3ccccc3Br)c(=O)c21`, the Potency was inconclusive: 17.8 µM [inhibitor, partial curve].
With `C=CC[n+]1c(-c2ccc(OC)c(OC)c2)csc1NNC(=O)Nc1ccccc1` the Potency was “inactive”.
For `CC1(C)CC(NC(=S)NCc2ccc3c(c2)OCO3)CC(C)(C)N1`, the Potency was inconclusive: 31.6 µM [inhibitor, single point].
`CC(C)c1ccc(C2C3=C(COC3=O)Nc3cc4c(cc32)OCO4)cc1` (stereo unspecified) was tested, and the Potency was inconclusive: 14.1 µM [inhibitor, partial curve].
With `CCOc1cc(/C=N/NC(=O)CSc2cccc3cccnc23)ccc1O` the Potency was inconclusive: 31.6 µM [inhibitor, partial curve].
For `CCN(CC)c1ccc(NC(=O)c2ccc(=O)[nH]c2)cc1S(=O)(=O)Nc1ccccc1OC`, the Potency was inconclusive: 11.2 µM [inhibitor, partial curve].
`Cc1occc1C(=O)N1CCN(c2ccc(Cl)c(Cl)c2)CC1` was tested, and the Potency was “inactive”.
With `COCc1c(C(=O)OCC(=O)N2c3ccccc3NC(=O)C2(C)C)oc2ccccc12` the Potency was inconclusive: 14.1 µM [inhibitor, partial curve].
In the case of `Cc1cc(Cl)cc(Cl)c1OCCOc1cccc2cccnc12`, the Potency is reported as inconclusive: 39.8 µM [inhibitor, single point].
`CC(C)C(=O)Nc1ccc2oc(=O)ccc2c1` was tested, and the Potency was inconclusive: 25.1 µM [inhibitor, partial curve].
`Cc1ccccc1C1c2[nH]c3ccccc3c2CCN1Cc1cccn1-c1ncccn1` (stereo unspecified) was tested, and the Potency was inconclusive: 28.2 µM [inhibitor, single point].
In the case of `CCn1c(O)c(C=C2N=c3ccccc3=N2)sc1=S`, the Potency is reported as “inactive”.
For `Cc1sc2c(c1C)CN(Cc1ccncc1)CN2C(=O)c1ccco1`, the Potency was inconclusive: 39.8 µM [inhibitor, single point].
For `COc1ccc(/C=C(\C#N)C(=O)OCC(=O)NCc2ccc(Cl)cc2)cc1`, the Potency was inconclusive: 39.8 µM [inhibitor, single point].
`O=C(C1CCCN(S(=O)(=O)c2cccnc2)C1)N1CCN(c2ccccn2)CC1` (stereo unspecified) was tested, and the Potency was inconclusive: 31.6 µM [inhibitor, partial curve].
With `CC(=O)Nc1ccc(/C=C(\C#N)C(N)=O)cc1` the Potency was inconclusive: 28.2 µM [inhibitor, single point].
For `Oc1ccc(/C=N/Nc2cc(N3CCOCC3)nc(N3CCOCC3)n2)cc1O`, the Potency was active: 28.2 µM.
With `NC(=O)C1=C[C@H](c2ccc3c(c2)OCO3)C[C@H](OCc2ccc(CO)cc2)O1` the Potency was inconclusive: 35.5 µM [inhibitor, single point].
With `O=c1c2[nH]c3ccccc3c2ncn1CCN1CCCCC1` the Potency was inconclusive: 35.5 µM [inhibitor, single point].
For `N#Cc1ccc(NC(=O)c2cc(-c3cccs3)on2)cc1`, the Potency was inconclusive: 25.1 µM [inhibitor, partial curve].
In the case of `Cn1c2ccc(F)cc2c2ncn(CC3CCCO3)c(=O)c21` (stereo unspecified), the Potency is reported as inconclusive: 31.6 µM [inhibitor, partial curve].
With `CN(Cc1cn(-c2ccccc2)nc1-c1cc2ccccc2o1)C(=O)CCC(=O)O` the Potency was inconclusive: 14.1 µM [inhibitor, partial curve].
For `O=C1CCC(=O)N1c1nc2n(n1)C(c1ccccc1)C=C(c1ccc(Br)cc1)N2` (stereo unspecified), the Potency was inconclusive: 35.5 µM [inhibitor, single point].
With `COc1ccc(C2=NN(C(=O)c3cccs3)C(c3ccccc3OC)C2)cc1OC` (stereo unspecified) the Potency was inconclusive: 35.5 µM [inhibitor, single point].
With `O=C(O)c1ccccc1C(=O)c1ccc(N2CCCC2)c([N+](=O)[O-])c1` the Potency was inconclusive: 35.5 µM [inhibitor, single point].
`NC(=O)c1ccccc1NC(=O)/C=C/C(=O)O` was tested, and the Potency was inconclusive: 22.4 µM [inhibitor, partial curve].
`CCSc1nc2sc3c(c2c(=O)[nH]1)CCc1ccccc1-3` was tested, and the Potency was inconclusive: 35.5 µM [inhibitor, single point].
`CCOC(=O)CC1C(=O)NCCN1c1nc2ccc(C)cn2c(=O)c1/C=C1\SC(=S)N(CC(C)C)C1=O` (stereo unspecified) was tested, and the Potency was “inactive”.
With `Cc1ccc(-c2ccc(CO)o2)cc1N` the Potency was inconclusive: 28.2 µM [inhibitor, partial curve].
For `Cc1cccc(NC(=O)C2CC(O)CN2C(=O)OCc2ccccc2)c1` (stereo unspecified), the Potency was “inactive”.
In the case of `COc1cc2nc(N3CCNCC3)nc(N)c2cc1OC`, the Potency is reported as inconclusive: 31.6 µM [inhibitor, partial curve].
In the case of `CC(C(N)=O)N1c2cccc3cccc(c23)S1(=O)=O` (stereo unspecified), the Potency is reported as inconclusive: 28.2 µM [inhibitor, partial curve].
In the case of `COc1cc(NS(=O)(=O)c2ccc(NC(=O)COc3ccc(C)cc3C)cc2)nc(OC)n1`, the Potency is reported as inconclusive: 8.91 µM [inhibitor, partial curve].
For `O=C(OC1CCCCC1=O)c1ccc(S(=O)(=O)Nc2ccccc2)cc1` (stereo unspecified), the Potency was inconclusive: 28.2 µM [inhibitor, single point].
With `CCOC(=O)c1cc2c(n(-c3ccc(Cl)cc3)c1=O)CCCC2=O` the Potency was inconclusive: 28.2 µM [inhibitor, partial curve].
With `CCOCCCNC(=S)N1CCN(CC)CC1` the Potency was inconclusive: 22.4 µM [inhibitor, single point].
With `CCN1CCN(c2cc(C)c3cc(NC(=S)N4CCC5(CC4)OCCO5)ccc3n2)CC1` the Potency was inconclusive: 20 µM [inhibitor, partial curve].
For `Cc1cc2n(n1)C(c1ccc(N(C)C)cc1)Nc1ccccc1-2` (stereo unspecified), the Potency was inconclusive: 31.6 µM [inhibitor, partial curve].
With `O=C(COc1ccccc1)Nc1nc(-c2ccc(S(=O)(=O)N3CCOCC3)cc2)cs1` the Potency was inconclusive: 22.4 µM [inhibitor, single point].
`CN(c1ccccc1)S(=O)(=O)c1cccc(C(=O)Nc2nccs2)c1` was tested, and the Potency was inconclusive: 28.2 µM [inhibitor, partial curve].
With `COC(=O)c1ccc2c(=O)n(CCCCCC(=O)NCc3ccc4c(c3)OCO4)c(=O)[nH]c2c1` the Potency was inconclusive: 31.6 µM [inhibitor, single point].
